Out of some 150,000 compounds screened, about 540 (0.36%) showed an effect of 50% or more. The list shows a part of the results.
These compounds were tested on Plasmodium falciparum (assay: Primary screen in NF54 nanoGlo assay, in single point, at 2uM, 72h; a lower Z score goes with more inhibition). Conditions: timepoint 72 hour.
Assay type: functional, Erythrocyte
With `CC(C)OC(=O)[C@@H]1CCCN1CC(=O)N1CCOC2CCCCC21` (stereo partly drawn) the “% Inhibition” value was 6% and the Z score was -0.69. In the case of `C[C@@H](C(=O)N1Cc2c(C(=O)NC3CC3)nn(C)c2C1)c1ccccc1`, the “% Inhibition” value is reported as -1% and the Z score is reported as 0.11. With `CCCCn1ncc(C(=O)N2CCN(c3ncc[nH]3)CC2)c1CC` the “% Inhibition” value was 7% and the Z score was -1.48. In the case of `CC(C)(O)CCc1ccc(C(=O)N2CCN3CCC[C@H]3C2)cc1`, the “% Inhibition” value is reported as -9% and the Z score is reported as 1.71. For `Cn1nc(C(=O)N2CCN(c3ccccn3)CC2)cc1C(F)(F)F`, the “% Inhibition” value was -8% and the Z score was 1.07. For `Brc1ccc2[nH]cc(Cc3noc([C@@H]4CCOC4)n3)c2c1`, the “% Inhibition” value was 3% and the Z score was -0.41. In the case of `O=C(NCc1nnc2n1CCC2)c1[nH]nc2c1CCC2`, the “% Inhibition” value is reported as 4% and the Z score is reported as -0.7. With `O=C(CNC1(c2cccc(Cl)c2)CC1)NC1CCCC1` the “% Inhibition” value was -5% and the Z score was 0.56. In the case of `CCc1oc2ccccc2c1[C@@H]1CC(=O)Nc2[nH]nc(C(=O)NC)c21`, the “% Inhibition” value is reported as -10% and the Z score is reported as 1.28. With `COc1ccc(NC(=O)Cn2cnc3nc(N4CCCC4)sc3c2=O)c(OC)c1` the “% Inhibition” value was -10% and the Z score was 1.62. In the case of `CO[C@@]12CC[C@@H](O)C[C@@H]1N(C(=O)c1nc3ccccc3[nH]1)CC2`, the “% Inhibition” value is reported as -3% and the Z score is reported as 0.59. For `Cc1ccc(NC(=O)CC(=O)N(C)Cc2nonc2C)c(C)c1`, the “% Inhibition” value was -2% and the Z score was 0.25. With `Cn1ccc(C(=O)Nc2nc3ccc(Br)cn3n2)cc1=O` the “% Inhibition” value was -13% and the Z score was 1.88. With `Oc1ccccc1CNc1cccc2cccnc12` the “% Inhibition” value was 96% and the Z score was -8.95. For `CC(=O)N(C)CCOc1ccc(N)cc1`, the “% Inhibition” value was -3% and the Z score was 0.38. With `C=CCN(CC=C)S(=O)(=O)c1ccc(C)cc1` the “% Inhibition” value was -10% and the Z score was 1.85. With `c1cc(-c2nc3ccccc3o2)cc(-c2nc3ccccc3o2)c1` the “% Inhibition” value was -13% and the Z score was 2.52. For `Cc1nccc(NC2CCC(Nc3ccnc(C)n3)CC2)n1` (stereo not drawn), the “% Inhibition” value was -17% and the Z score was 3.2. In the case of `O=C(c1cccs1)N1CC[C@@](O)(c2ccccc2)[C@H](N2CCCC2)C1`, the “% Inhibition” value is reported as 1% and the Z score is reported as -0.16. In the case of `CCC[C@]1(CO)CCCN(C(=O)c2c[nH]c(=O)[nH]c2=O)C1`, the “% Inhibition” value is reported as 3% and the Z score is reported as -0.42. In the case of `CCCS(=O)(=O)N1Cc2c(-c3nc(C)no3)nn(C)c2C1`, the “% Inhibition” value is reported as -2% and the Z score is reported as 0.24. For `O=C(N1CCOCC1)N1CCC[C@H]1c1ccc2c(c1)OCCO2`, the “% Inhibition” value was 3% and the Z score was -0.31. For `Cc1cccnc1CNS(=O)(=O)c1cccc(C(=O)N2CCNCC2)c1`, the “% Inhibition” value was -13% and the Z score was 1.46. In the case of `CCOC(=O)C1(C(=O)Nc2cccc(C)c2)CCC1`, the “% Inhibition” value is reported as -11% and the Z score is reported as 1.41.

From ChEMBL document CHEMBL4888484, “Replenishing the malaria drug discovery pipeline: Screening and hit evaluation of the MMV Hit Generation Library 1 (HGL1) against asexual blood stage Plasmodium falciparum ,using a nano luciferase reporter read-out” (2022)
